# Results as given in PubChem BioAssay AID1030 (National Center for Advancing Translational Sciences (NCATS), 2008).
# The whole screen tested about 220,000 compounds, of which about 16,000 (7.3%) were called active. Inconclusive results, whose numbers are uncertain, are shown with a selection of clear calls. Calls come from the whole dose curve; as a rule, active = well fitted inhibition curve with a large enough effect (not every such curve was filed as active); inconclusive = small, poorly fitted or top-dose-only effect, or another doubt; inactive = no such curve, though single readings can be large or run the other way. No potency is given beside an inconclusive call; the fits are too rough.
# Target: Aldehyde dehydrogenase 1A1 (Homo sapiens) (UniProt P00352)
# Chain of UniProt P00352 (P00352 whole entry, looked up): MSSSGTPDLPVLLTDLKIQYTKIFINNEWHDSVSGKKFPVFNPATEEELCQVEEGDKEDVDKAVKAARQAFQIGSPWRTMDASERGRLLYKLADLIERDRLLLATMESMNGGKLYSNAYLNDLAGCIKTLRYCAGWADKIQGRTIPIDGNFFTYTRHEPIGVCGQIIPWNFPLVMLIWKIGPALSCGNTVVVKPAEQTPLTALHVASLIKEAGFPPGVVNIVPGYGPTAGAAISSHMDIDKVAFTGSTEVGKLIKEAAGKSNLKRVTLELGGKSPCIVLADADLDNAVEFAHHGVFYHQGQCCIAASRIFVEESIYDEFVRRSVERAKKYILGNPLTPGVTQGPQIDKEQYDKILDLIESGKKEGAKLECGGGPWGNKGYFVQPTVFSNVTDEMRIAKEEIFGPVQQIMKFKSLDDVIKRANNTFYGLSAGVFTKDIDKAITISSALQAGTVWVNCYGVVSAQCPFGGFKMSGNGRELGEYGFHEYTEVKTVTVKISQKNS
# Assay: qHTS Assay for Inhibitors of Aldehyde Dehydrogenase 1 (ALDH1A1);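 for activity, negative = inhibition: plate controls were no enzyme wells and a reference inhibitor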
# Settings: Purified ALDH1A1, NADH fluorescence, propionaldehyde substrate; series mostly up to 75.3 µM; activity, negative = inhibition: at the top concentration
# Potency is the fitted concentration of half-maximal effect; tags give direction and shape of the fitted curve.
SMILES,Potency,"activity, negative = inhibition"
N#Cc1c(N)n(CCc2ccc(F)cc2)c2nc3ccccc3nc12,"inconclusive [inhibitor, partial curve]",
CCSc1nnc(Cn2c(=O)sc3ccccc32)n1C,,inactive: 2.37%
Cc1cccc(-n2c(SCc3ccc([N+](=O)[O-])cc3)nnc2-c2c[nH]c3ccccc23)c1,,inactive: 7.01%
Cc1ccc(S(=O)(=O)Cc2ccc(C(=O)NCc3cccs3)o2)cc1,"inconclusive [inhibitor, single point]",
COC(=O)C1=C(C(=O)OC)SC2(S1)C(C(=O)OC)=C(C(=O)OC)SC1=C2c2cc(C)ccc2NC1(C)C,active: 8.91 µM,
O=C(O)CCNS(=O)(=O)c1ccc2ccccc2c1,"inconclusive [inhibitor, single point]",
COc1ccc(CN2C(=O)c3ccccc3C2C(=O)NC2CCCCCC2)c(OC)c1 (centres undefined),,inactive: -6.86%
O=C(c1ccco1)N1CCC2(CCCN(c3cccc(-c4ccccc4)c3)C2)CC1,active: 25.1 µM,
COc1ccc(OC)c(-c2nc(CN3CCCCC3c3cccnc3)c(C)o2)c1 (centres undefined),"inconclusive [inhibitor, partial curve]",
O=C(COC(=O)c1cnc(Cl)c(Cl)c1)Nc1ccc(S(=O)(=O)N2CCCC2)cc1,"inconclusive [inhibitor, single point]",
O=C(N/N=C\c1cc([N+](=O)[O-])ccc1N1CCCC1)c1ccccn1,"inconclusive [inhibitor, partial curve]",
CC(C)c1ccc(Nc2nnc(SC3CCOC3=O)s2)cc1 (centres undefined),"inconclusive [inhibitor, single point]",
COc1cccc(-n2c(=S)sc3c(=O)n(-c4ccccc4OC)c(=S)[nH]c32)c1,"inconclusive [inhibitor, single point]",
COc1ccccc1Nc1nc(-c2cccc([N+](=O)[O-])c2)nc2ccccc12,"inconclusive [inhibitor, single point]",
O=C(CCN1CCN(CCO)CC1)Nc1ccc(F)c(F)c1,,inactive: 7.28%
CCN(CC)S(=O)(=O)c1cccc(C(=O)OCC(=O)C23CC4CC(CC(C4)C2)C3)c1,"inconclusive [inhibitor, single point]",
O=c1cc(CNc2cc(Cl)ccc2Cl)nc2sccn12,,inactive: 4.62%
Cn1ccc(NC(=O)Nc2ccc(Cl)cc2)n1,,inactive: 13%
Cc1c(/C=N/NC(=O)c2cc(=O)[nH]c(=O)[nH]2)c2ccccn2c1C(=O)c1ccccc1,"inconclusive [inhibitor, single point]",
Cc1ccc2c(c1)sc1nc(=O)n(-c3cccc(Cl)c3)c(=O)n12,,inactive: -2.47%
COC(=O)c1ccc(CSc2nc3c(c(=O)n2-c2ccccc2)SCC3)o1,"inconclusive [inhibitor, single point]",
Cc1ccc(S(=O)(=O)N(C)c2ccc(C(=O)N3CCN(Cc4ccc5c(c4)OCO5)CC3)cc2)cc1,"inconclusive [inhibitor, full curve]",
O=C(CSc1nc2cc3c(cc2c(=O)n1CCC1=CCCCC1)OCO3)NCc1ccco1,,inactive: 3.46%
CCCOc1ccc(NC(=O)C2CC(=O)N3CCCN=C3S2)cc1 (centres undefined),active: 2.82 µM,
Nc1cc(C(F)(F)F)ccc1-n1cccc1,"inconclusive [inhibitor, single point]",

SMILES,Potency,"activity, negative = inhibition"
COc1cc(NC(=O)c2cccc(C)c2)c(OC)cc1NC(=O)CN1CCOCC1,"inconclusive [inhibitor, single point]",
O=C(CCN1CCOCC1)c1ccccc1,active: 0.316 µM,
O=[N+]([O-])c1nccn1C[C@H](O)CN1CCCCC1,,inactive: 8.55% [at 13.5 µM]
CCN(CC)c1ccc(NC(=O)CN2CCN(c3nc(C)cc(C)n3)CC2)cc1,active: 7.94 µM,
COc1ccccc1OCC(=O)Sc1ccc(C)cc1,,inactive: -4.02%
CCCCCCCCCCCCCCCC(=O)OCC(COP(=O)(O)O)OC(=O)CCCCCCCCCCCCCCC (centres undefined),inactive,
CC1CC1C(=O)Nc1nc(-c2cccs2)c(-c2cccs2)s1 (centres undefined),"inconclusive [inhibitor, single point]",
CCC1Oc2ccc(C)cc2N(CC(=O)N(Cc2cccnc2)Cc2ccc(C)o2)C1=O (centres undefined),active: 3.16 µM,
O=C(CCCCl)NC1=NN(c2ccccc2)C(=O)C1,active: 8.91 µM,
Cc1sc2nc(CSc3nc4ccccc4s3)[nH]c(=O)c2c1C,active: 7.94 µM,
Fc1ccc(N2N=C(c3cccs3)CC2c2ccccc2)cc1 (centres undefined),"inconclusive [inhibitor, partial curve]",
CCOC(=O)NC1(Nc2cccc(Cl)c2)Oc2ccccc2O1,"inconclusive [inhibitor, single point]",
Cn1c(=O)c2c(SCc3ccccc3)nc(C3CC3)nc2n(C)c1=O,"inconclusive [inhibitor, partial curve, poor fit]",
O=C(CSc1ccc2nnc(-c3ccncc3)n2n1)Nc1ccc2c(c1)OCO2,"inconclusive [inhibitor, single point]",
O=C(NCc1nnc(SCC(=O)N2CCCc3ccccc32)n1-c1ccccc1)c1cccc2ccccc12,"inconclusive [inhibitor, single point]",
O=C(CN(CCc1ccccc1)C(=O)CNS(=O)(=O)c1ccc(F)cc1)NCc1ccco1,"inconclusive [inhibitor, partial curve]",
O=C(O)CCCC(=O)Nc1nncs1,,inactive: 5.85%
Cn1c(SCc2n[nH]c(=S)o2)nnc1-c1ccccc1,,inactive: 0.452%
CC(C)NC(=O)CSc1nnc(COc2ccccc2Cl)o1,,inactive: 8.05%
CC(=O)O/N=C(/c1nonc1N)N1CCN(c2ccc([N+](=O)[O-])cc2Cl)CC1,"inconclusive [inhibitor, single point]",
S=c1[nH]nc(Cc2ccccc2)n1-c1cccc2ccccc12,"inconclusive [inhibitor, single point]",
O=C(NCc1cccc2ccccc12)Nc1ccccc1,,inactive: 1.36%
COc1cc(/C=C(\C#N)C(=O)NCC2CCCO2)ccc1OCC(N)=O (centres undefined),,inactive: -6.52%
COC(=O)c1ccc(C(NC(=O)OCc2ccccc2)/C(C)=C/[C@@H](C)C(=O)NCCO)cc1 (some centres undefined),"inconclusive [inhibitor, single point]",
CCN(C(=O)Cc1cccs1)c1nnc(-c2cc(OC)c(OC)c(OC)c2)s1,"inconclusive [inhibitor, partial curve]",

SMILES,Potency,"activity, negative = inhibition"
CC1CN(C(=O)Nc2ccc3snnc3c2)c2ccccc21 (centres undefined),"inconclusive [inhibitor, single point]",
COc1ccccc1NC(=O)C1(C)Cc2ccccc2C(=O)O1 (centres undefined),,inactive: 10.1%
CCOC(=O)c1cc2occc2n1CC(=O)NCCOC,,inactive: -6.83%
O=C(Nc1nc2ccc(Cl)cc2s1)C1CCCO1 (centres undefined),"inconclusive [inhibitor, partial curve]",
CCN(CC)S(=O)(=O)c1ccc2nnn(OCC(=O)Nc3cccc(C#N)c3)c2c1,active: 14.1 µM,
CCn1cc(C(=O)NCc2ccco2)c2cc(OC)c(OC)cc2c1=O,,inactive: -5.45%
COc1ccc(Cl)cc1S(=O)(=O)N1CCCC1=O,,inactive: 8.83%
COc1cc(CC(=O)OCC(=O)Nc2ccc3c(c2)OCCO3)cc(OC)c1OC,"inconclusive [inhibitor, single point]",
NC(=O)c1nsc(C(=O)N(CC(=O)NC2CCCC2)Cc2ccc3c(c2)OCO3)c1N,,inactive: -18.2%
Cc1nn(Cc2cccc(C(=O)NC(C)c3ccc(C(C)(C)C)cc3)c2)c(C)c1[N+](=O)[O-] (centres undefined),"inconclusive [inhibitor, single point]",
O=C(N/N=C/c1ccc([N+](=O)[O-])cc1)c1c[nH]c2ccccc12,,inactive: 0.458%
CCCCc1nc(NCC2CCCO2)c(C#N)c2c1COC(C)(C)C2 (centres undefined),"inconclusive [inhibitor, full curve]",
CCS(=O)(=O)Nc1ccc(C(=O)OC)cc1,,inactive: -0.645%
COc1ccc(-n2c(Cc3ccccc3)nnc2SCc2ccc([N+](=O)[O-])cc2)cc1,"inconclusive [inhibitor, single point]",
CC(C)[C@@H]1C(=O)N(S(C)(=O)=O)[C@H]2CCN(C(=O)/C=C\CN3CCCCC3)[C@@H]12,,inactive: 6.2%
CN(Cc1ccccc1)C(=O)c1[nH]cnc1C(=O)N[C@@H](Cc1ccccc1)C(=O)OCc1ccccc1,"inconclusive [inhibitor, single point]",
O=C(C(=O)N1CCCc2ccccc21)c1c[nH]c2ccccc12,"inconclusive [inhibitor, partial curve]",
O=C(CC1(O)C(=O)N(CCc2ccccc2)c2ccccc21)c1ccccn1 (centres undefined),"inconclusive [inhibitor, full curve]",
CCCCNC(=O)c1nn(-c2ccccc2OC)c(=O)c2ccccc12,"inconclusive [inhibitor, single point]",
CCn1ncc(/C=N\NC(=O)Cc2ccc([N+](=O)[O-])cc2)c1C,,inactive: -0.885%
Clc1ccc(OCCn2c(-c3ccco3)nc3ccccc32)cc1,"inconclusive [inhibitor, single point]",
N#Cc1c(NC(=O)c2ccccc2)sc2c1CCC2,"inconclusive [inhibitor, partial curve]",
CC(=O)c1cc2c(=O)c3cc(C)ccc3oc2nc1C,"inconclusive [inhibitor, single point]",
Cc1cccc(Cn2nnc3c2C(=O)c2ccccc2C3=O)c1,,inactive: -5.5%
